In PubChem BioAssay AID1240 (Sanford-Burnham Center for Chemical Genomics, 2008):
In all, about 50,000 compounds went through this assay and about 800 (1.6%) showed an effect of 50% or more. The list shows a part of the results.

Target: Bcl-2-like protein 10 (Homo sapiens) (UniProt Q9HD36)
Assay: TR3 peptide-Bcl-B binding displacers, biochemical primary FP assay, phenotype converters (AID 1240);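 note: 0% = Bcl-B with tracer peptide and DMSO and 100% = tracer peptide lacking Bcl-B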
Conditions: GST-Bcl-B / FITC-TR3 peptide fluorescence polarization; stronger effect = higher value; compound at 3.75 mg/L

Sequence of UniProt Q9HD36 (Q9HD36 whole entry, looked up): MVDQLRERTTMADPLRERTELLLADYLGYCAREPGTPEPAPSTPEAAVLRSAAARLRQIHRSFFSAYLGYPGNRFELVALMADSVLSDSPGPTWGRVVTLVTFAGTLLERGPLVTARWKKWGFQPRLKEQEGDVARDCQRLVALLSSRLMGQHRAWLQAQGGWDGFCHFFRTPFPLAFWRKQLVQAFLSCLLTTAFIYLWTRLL

| Compound | displacement |
| --- | --- |
| CN1CCN(C(=O)c2ccccc2NC(=O)CN2C(=O)c3ccccc3C2=O)CC1 | 9.4% |
| C/C(=N\Nc1nc(C(C)(C)C)cs1)c1ccc(O)cc1 | -3.7% |
| CCN1C(=O)C(=Cc2ccc([N+](=O)[O-])o2)C(=O)N(CC)C1=S | 29.7% |
| COC(=O)c1c(NC(=O)c2c(-c3ccccc3)noc2C)sc2c1CCCCC2 | -2.8% |
| COC(=O)C1=C(C)NC2=C(C(=O)CC(c3cccs3)C2)C1c1ccc(F)c(F)c1 (stereo unspecified) | 11.1% |
| c1ccc(Nc2nc(-c3ccncc3)cs2)cc1 | 3.8% |
| Cc1onc(-c2c(Cl)cccc2Cl)c1C(=O)Nc1sc2c(c1C(N)=O)CCCC2 | -14.6% |
| O=[N+]([O-])c1ccc(N2CCN(S(=O)(=O)c3ccc4ccccc4c3)CC2)c(Cl)c1 | 2.3% |
| CCOc1cccc(/C=N/c2ccccn2)c1O | 10.4% |
| O=C(O)CCCCCN1C(=O)C(=O)/C(=C(/O)c2ccc([N+](=O)[O-])cc2)C1c1cccc(F)c1 (stereo unspecified) | -2% |
| CC(=O)Oc1ccc(/C=C(/NC(=O)c2ccccc2)C(=O)NCCO)cc1 | 1.7% |
| C/C(=N/NC(=O)C(=O)N/N=C(/C)c1ccccc1)c1ccccc1 | 3.9% |
| COc1ccc(C)cc1NC(=O)COc1cccc2ccccc12 | 17.6% |
| COc1ccc(NC(=O)c2cc3n(n2)C(C(F)(F)F)CC(c2ccco2)N3)c(OC)c1 (stereo unspecified) | 3% |
| COc1ccc(Br)cc1CN1CCN(S(=O)(=O)c2ccc(Cl)cc2)CC1 | 5.7% |
| Cc1cccc(C(=O)Nc2sc3c(c2C(=O)NCc2ccco2)CCCCC3)c1 | -11.7% |
| CCC1CCc2c(sc(NC(=O)CCC3CCCCC3)c2C(N)=O)C1 (stereo unspecified) | -10.1% |
| COc1ccc(/C=C(/C#N)C(N)=O)c2ccccc12 | -5.2% |
| CCOc1ccc(N(CC(=O)N2CCCC2)S(=O)(=O)c2ccc(SC)cc2)cc1 | 15.5% |
| Cc1ccc(/C=N/NC(=O)C(=O)NC(C)(C)C)cc1 | 9.2% |
| CCC(=O)c1ccc(N2CCN(C(=O)c3ccc(F)cc3)CC2)c(F)c1 | -11.8% |
| O=C(Nc1ccccc1)c1ccc(CN2CCN(c3ccccc3)CC2)cc1 | -5.8% |

| Compound | displacement |
| --- | --- |
| CCOc1cc(/C=C2/SC(=S)N(C)C2=O)ccc1OCCOc1ccccc1C | 3.3% |
| O=C(Nc1cccc(Cl)c1Cl)c1ccc(CN2CCOCC2)cc1 | -1.3% |
| CCCCOC(=O)c1cccc(NC(=O)COc2ccccc2)c1 | -9.4% |
| Cc1ccccc1NC(=O)c1c(NC(=O)Cc2ccccc2)sc2c1CCCC2 | 14.2% |
| N/C(Cc1ccc(Cl)cc1)=N\OC(=O)c1ccc([N+](=O)[O-])cc1 | -0.8% |
| O=c1/c(=C/c2cccc(Br)c2)sc2nc3cc(Br)cnc3n12 | -5.6% |
| Cc1cccc(OCCNc2cc(N3CCCC3)ccc2[N+](=O)[O-])c1 | -6.1% |
| O=C(Nc1ccccc1)/C(=C\c1ccccc1)NC(=O)c1ccccc1Br | -13.4% |
| O=C(Nc1cccnc1)c1cccc(S(=O)(=O)N2CCCCC2)c1 | 1.2% |
| O=C(Nc1ccccc1)C1CCCN1C1CCCCC1 (stereo unspecified) | 0.7% |
| CS(=O)(=O)N(Cc1ccc(C(=O)Nc2cccc(C(F)(F)F)c2)cc1)c1cccc(Cl)c1 | -0.3% |
| Cc1c(C(=O)NC2CCCCCC2)cccc1[N+](=O)[O-] | -4.8% |
| O=C(NCc1cccnc1)c1cnn2c(C(F)(F)F)cc(-c3cccs3)nc12 | 0.3% |
| Cc1ccc(C)c(C(=O)CSc2n[nH]c(-c3ccccc3)n2)c1 | 15.7% |
| O=C1/C(=C/c2ccc(-c3ccccc3[N+](=O)[O-])o2)SC(=S)N1Cc1ccccc1 | 12.2% |
| C=CCN=C1/C(=C(/O)CCC)C(=O)CC(C)(C)C1C(=O)OC (stereo unspecified) | 7.6% |
| CCSCCOC(=O)C1=C(C)NC(=O)NC1c1cc(OC)c(OC)c(OC)c1 (stereo unspecified) | 7.3% |
| C=CCC1(N(Cc2ccccc2)C(C)=O)CCCCC1 | 3.9% |
| O=C(Nc1ccc(NC(=O)c2ccc(Cl)cc2Cl)c(Cl)c1)c1ccccc1 | 12.7% |
| COc1cc([N+](=O)[O-])ccc1-c1ccc(/C=C2\C(=O)NN(c3ccccc3)C2=O)o1 | -9.1% |
| CC(C)OCCCNC(=O)C(=O)NCc1cccc(CNC(=O)C(=O)NCCCOC(C)C)c1 | 0.4% |
| COc1ccc(CN2CCN(CC3CC4C=CC3C4)CC2)cc1Br (stereo unspecified) | 16.5% |

| Compound | displacement |
| --- | --- |
| CCc1ccccc1NC(=O)/C=C/c1ccc(OC)c(Br)c1 | 2.2% |
| O=C(O)c1ccc2c(c1)C(=O)N(c1ccc(-c3nnc(-c4ccccc4)o3)cc1)C2=O | 9% |
| CC1=C(C(=O)OCCc2ccccc2)C(c2ccccc2OC(C)C)CC(=O)N1 (stereo unspecified) | -13% |
| CCOC(=O)C1=C(C)N=c2s/c(=C\c3ccc4c(c3)OCO4)c(=O)n2C1c1ccc(OC)c(Br)c1 (stereo unspecified) | 25.3% |
| Cc1ccc(NC(=S)c2ccccn2)cc1 | 0.8% |
| COC(=O)c1cnn2c(C(F)(F)F)cc(-c3cc(OC)c(OC)c(OC)c3)nc12 | -13.7% |
| C=CCN1C(=O)/C(=C\c2ccc(OCc3ccccc3)c(OCC)c2)SC1=S | 49.5% |
| COc1ccc(CC(=O)Nc2cccc(C(=O)NCC(C)C)c2)cc1 | -2.9% |
| COc1cc2c(cc1OC)C(NNC(N)=O)=NC(C)(C)C2 | 5.6% |
| O=C1C2C3C=CC(C4CC34)C2C(=O)N1c1cc(Cl)cc(Cl)c1 (stereo unspecified) | -5.8% |
| CCSCCOC(=O)C1=C(C)NC2=C(C(=O)CCC2)C1c1ccc(F)c(F)c1 (stereo unspecified) | -2.4% |
| CCN(CC)CCCCOc1cc(C)ccc1Cl | 3.4% |
| O=C(c1c(F)cccc1F)N1CCN(c2cc(N3CCCC3)c(F)cc2[N+](=O)[O-])CC1 | -9.1% |
| COc1ccccc1NC(=O)c1c(NC(=O)Cc2ccccc2)sc2c1CCC(C)C2 (stereo unspecified) | -2.1% |
| Cc1cc(Cl)ccc1OCC(=O)Nc1nc2ccccc2s1 | -7.7% |
| CC(C)(C)C1(O)CC(C(F)(F)F)=NN1C(=O)c1ccc([N+](=O)[O-])cc1 (stereo unspecified) | 9.4% |
| O=C(c1ccco1)N(O)c1ccccc1 | -4.7% |
| CC(=O)Nn1c(O)c(C2=c3cc(C)ccc3=NC2=O)sc1=S | -7.7% |
| CCOCCOC(=O)c1ccc(NC(=O)/C=C/c2ccc(OC)c(Br)c2)cc1 | 6.4% |
| COc1ccc2c(c1OC)C(=O)OC2c1cc([N+](=O)[O-])ccc1O (stereo unspecified) | -3.6% |
| Cc1cc(S(=O)(=O)N2CCCC2C(=O)O)c(C)cc1Cl (stereo unspecified) | -5.8% |
| O=C(NCc1ccc2c(c1)OCO2)c1cc(-c2ccccc2Cl)nc2ccccc12 | 7.1% |

| Compound | displacement |
| --- | --- |
| COc1ccccc1N(CC(=O)Nc1ccc(C)cc1C)S(=O)(=O)c1ccccc1 | 5.7% |
| Cc1n[nH]c(C)c1CCC(=O)N/N=C/c1cccs1 | -5.5% |
| O=C(Nc1ccc(O)cc1)c1cccc(Oc2ccc([N+](=O)[O-])cc2)c1 | 10% |
| O=C1N=C(N2CCOCC2)S/C1=C/c1ccco1 | 35.7% |
| CCCCOC(=O)c1cccc(NC(=O)C(C)Oc2ccc(OC)cc2)c1 (stereo unspecified) | 12.8% |
| CN(C)c1cccc(C(=O)Nc2ccccc2F)c1 | 8.2% |
| CC1CCc2c(sc(NC(=O)c3ccccc3)c2C(N)=O)C1 (stereo unspecified) | 11.2% |
| O=C(c1ccccc1Cl)c1coc2ccc(Cl)cc2c1=O | 6.5% |
| CCc1cc2c(cc1C(=O)c1ccccc1)OCCO2 | 4.5% |
| COc1ccc(/C=N/NC(=O)c2cc(=O)[nH]c3ccccc23)cc1OC | -8.7% |
| O=c1c([N+](=O)[O-])c(Nc2ccc(Br)cc2)c2ccccc2n1-c1ccccc1 | 9.9% |
| CCOc1ccc(N(CC(=O)Nc2cc(C)ccc2C)S(=O)(=O)c2ccc(SC)cc2)cc1 | -0.6% |
| CCCc1cc(=O)oc2c(C)c(OC(C)=O)ccc12 | -6.4% |
| CC(C)C(=O)Nc1ccc2oc(-c3cccc4ccccc34)nc2c1 | 17.7% |
| O=C(CN(c1cccc([N+](=O)[O-])c1)S(=O)(=O)c1ccccc1)N[C@@H]1C[C@H]2CC[C@@H]1C2 | -11.4% |
| CCOc1ccc(-n2c(O)c(C=NCC3(C)CC(O)CC(C)(C)C3)c(=O)[nH]c2=O)cc1 (stereo unspecified) | -45% |
| O=C(CC(c1ccccc1)c1cc(C(=O)N2CCOCC2)ccc1O)N1CCOCC1 (stereo unspecified) | -15.2% |
| Cc1cc(C)c2oc(-c3cccc(NC(=O)COc4ccccc4[N+](=O)[O-])c3)nc2c1 | -24.2% |
| CCCC(=O)NC(c1ccc(OC)c(OC)c1)c1c(OC(C)=O)ccc2ccccc12 (stereo unspecified) | -9.2% |
| Cc1ccc2cccc(NS(=O)(=O)c3ccccc3)c2n1 | 14% |
| CCn1nnnc1-c1ccc(OC)c(S(=O)(=O)NCCc2ccccc2)c1 | 7.3% |
| CC(=O)NS(=O)(=O)c1ccc(NC(=O)c2c(C)c(-c3ccccc3)nc3ccccc23)cc1 | -4.4% |

| Compound | displacement |
| --- | --- |
| CC(=O)c1ccc(NC(=O)CN(c2cccc([N+](=O)[O-])c2)S(=O)(=O)c2ccccc2)cc1 | 7.7% |
| c1ccc(-c2cc(-c3ccncc3)nc3ccc4ccccc4c23)cc1 | 2.4% |
| CCOC(=O)c1cc(=O)n2[nH]c(-c3ccc(-c4ccccc4)cc3)cc2n1 | -0.8% |
| C=CCN=CC1=C(O)CC(C)(C)CC1=O | 7.8% |
| CCCCOc1ccc(-c2nc(Cc3ccccc3)no2)cc1 | -9% |
| CC(=O)Nc1ccc(S(=O)(=O)N2CCN=C2C)cc1 | -2.8% |
| COc1cccc(-c2cc(C(=O)NCc3cccnc3)c3ccccc3n2)c1 | 0.7% |
| N#Cc1c2n(c3c(=O)n(Cc4ccccc4Cl)cnc13)CCCC2 | -7.7% |
| Cc1ccc(NC(=O)N(Cc2ccccc2)C(C)C2CC2)cc1 (stereo unspecified) | 13% |
| O=C(NC1CCCCCC1)c1cc(Cl)ccc1[N+](=O)[O-] | -7.2% |
| COc1ccc(/C=C2\C(=O)NC(=O)N(c3ccc(F)cc3)C2=O)cc1OC | -27.7% |
| COc1cc(OC)cc(C(=O)Nc2ccc(OC)c3ccccc23)c1 | 10% |
| Nc1ccc2nc(-c3cccc(Cl)c3)oc2c1 | 33.8% |
| Cc1ccc(NCCC(=O)c2cccs2)cc1Cl | 7.5% |
| Cc1cccc(/C=C2/SC(=S)N(C)C2=O)c1 | 5.6% |
| O=C(COc1ccccc1[N+](=O)[O-])Nc1ccc(O)c(-c2nc3ccccc3s2)c1 | -0.9% |
| O=C(CCN1CCOCC1)c1ccc(Cl)cc1 | -3.9% |
| Nc1ccc(S(=O)(=O)N2CCc3ccccc32)cc1 | -8.3% |
